Assay results reported in the supplement of paper PMC11417369.
± gives the standard deviation of the averaged measurements. This is one part of the list.

The sequences below were run on PfAP2-EXP AP2 domain (GST-tagged) (assay: gcPBM binding intensity (ln(normalized median fluorescence intensity)); higher = stronger DNA binding).
Method in brief: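 GST-tagged P. falciparum DNA-binding domains produced in E. coli were incubated for 1 h on an Agilent 4 × 180k array of primer-extended double-stranded 36-bp intergenic genomic probes with negative controls. Binding intensity is the highest Masliner-normalised natural-log median intensity across replicate spots of either probe orientation, with bound protein detected by Alexa488 anti-GST antibody at 488 nm.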

Sequence | gcPBM binding intensity (ln)
ACATAAATAATAAAAACACACATATGTACTTATATA [CACACA_site8581] | 8.54 ± 0.25
CATATTTGTATATGCACACATAAATTTTTCCATTTC [CACACA_site3467] | 8.6 ± 0.27
AAATTTTTAAACAGCACACATAAATATAATATATAT [CACACA_site2208] | 8.6 ± 0.44
GACATTAAAATGAAATATACATATATATGTATATAT [TGCATGCA_negctrl_site601] | 8.31 ± 0.35
TTACATTTTTGAAATAGATACATACACGTGTATGTA [CACACA_negctrl_site1311] | 8.36 ± 0.36
TATAACATAAAACACACACACATACATACACAAAAA [CACACA_site1804] | 8.82 ± 0.55
AAATTTTTTTTTTAATTTTTTATTTAAAAAAAATAT [TGCATGCA_negctrl_site174] | 8.09 ± 0.41
GTTATAAATAAATATACACACATATATAAAATACAT [CACACA_site7146] | 8.46 ± 0.27
CGCTTTATTTATATATGTACATATATATATATATAC [XGTACX_site5012] | 8.86 ± 0.42
AAGGCAAACAGACACACACACATATATACCTATATA [CACACA_site7077] | 8.48 ± 0.63
GTTGCCATCATTTGGCGTACAGTCAAAACCAAATCT [XGTACX_site1398] | 8.69 ± 0.47
GTTATACACATTACATGTACAAAAGTTGCACTTCAT [XGTACX_site6023] | 8.91 ± 0.36
TTTGTTCAATTTACATGTACAGATATAATCTAACAT [XGTACX_site370] | 8.54 ± 0.28
ATTTTTATTTTATATACACACAATAATAATATAATA [CACACA_site4015] | 8.42 ± 0.37
TCTATTAAAACAAATTGTACTTATTGATAAAGAATA [XGTACX_site3645] | 8.35 ± 0.41
TCCTATTTTATATAATGTACATAAATATATTACATA [XGTACX_site2720] | 8.53 ± 0.35
AAGAGCAACCAAATAGAAAAAGGAAAATAAAAGGAA [CACACA_negctrl_site100] | 8.88 ± 0.5
TTACAAATGTAGAAAAGTACATATAATAATAATTTA [XGTACX_site3044] | 8.32 ± 0.42
TTTAAGCGTTCACTGCTGCACTTTTATGTTGTGACC | 8.71 ± 0.51

Sequence | gcPBM binding intensity (ln)
AAAAAAAAAAAAAGCACACACACATATGCGTATATA [CACACA_site953] | 8.43 ± 0.33
GGTAGAAAATCAGTTAAACACACACCGAAAAAAAAA [CACACA_site8934] | 8.72 ± 0.5
ATTTGTATAATAAGTTGTACAATTCTTACAATATAA [XGTACX_site4164] | 8.46 ± 0.22
ATGGATAATAATAAGTGTACACATATATTTAGAAGA [XGTACX_site244] | 8.94 ± 0.33
TATAAGAAATAAAACCTGATTATAAACCTGTAACCA [CACACA_negctrl_site1302] | 8.3 ± 0.45
TAAATATAACAGAATAATATGTGGATTAATAAATGA [CACACA_negctrl_site438] | 8.56 ± 0.23
TTAAGTTACAATTCTCGTACACATTAAAAGAAAATT [XGTACX_site699] | 8.6 ± 0.53
AAAAAAAAAAAAAAAACACACATGTATACTAGAATA [CACACA_site7108] | 8.67 ± 0.31
ATATAATATGTTGAATGTACTTAAAAAAATGTATCT [XGTACX_site5385] | 8.49 ± 0.34
GCATACATCAAGCACACACACACACGCACACGCACA [CACACA_site6311] | 8.71 ± 0.5
ACTACGAATGGTAGAGTGCAGTCTGGAGAAGAGTAC [GTGCAC_site9685] | 9.17 ± 0.33
AAAAAAAAGAATTAGGCACACAATTTTAATATAGGA [CACACA_site1522] | 8.41 ± 0.47
TTATGTTTCATAAAAAATTAATCAAACATATATAAG [CACACA_negctrl_site666] | 8.09 ± 0.4
TTATGGATGGACAATAATAAAATTTTTACTTTTATT [CACACA_negctrl_site908] | 8.49 ± 0.33
GTGAAGTTCAAAATATGTACTTATGTATGTATTTTT [XGTACX_site165] | 8.18 ± 0.16
TCATATATATTGAAATGTACTTATTTTTTCCTCATA [XGTACX_site6526] | 8.45 ± 0.3
CATACACAGAAACACACACACATATATACATATATA [CACACA_site1094] | 8.59 ± 0.56
AAAAAAAAAATTATATATATATCCCTTATTTTTTCT [TGCATGCA_negctrl_site151] | 8.59 ± 0.67
TATACATAGAAACACACACACATAAATAAATATATA [CACACA_site1342] | 8.84 ± 0.45

Sequence | gcPBM binding intensity (ln)
CCTTAAATAATATATTCACACAATATAACAAAAATT [CACACA_site4892] | 8.47 ± 0.35
TGGTATATAAAACACACACACATATGTATATATATA [CACACA_site926] | 9.23
ATATGTTTTAAGTGTACACATATAATGTATTTTGTT [CACACA_site4929] | 8.71 ± 0.25
TTGCTCATTGAAATTATACACACCAAATATATAAAT [CACACA_site2482] | 8.42 ± 0.44
TATTATGCTATTTAATGTACGGAATTTATATATATA [XGTACX_site564] | 8.66 ± 0.14
AACCTATCTATAGGAACAATATATATATATATAATT [CACACA_negctrl_site1707] | 8.64 ± 0.56
TAAAAAAAAACATGATGTACATAAAATTTTTTACTT [XGTACX_site7056] | 8.57 ± 0.46
AAAATATATAAACGCACATATATTTATGTATATATA [CACACA_negctrl_site163] | 8.64 ± 0.49
TTATTAGAGATGTTAAGATATAGGGATAATTTCGAT [XGTACX_negctrl_site395] | 8.34 ± 0.49
TACATATATTTAAGGAGTACAAAAAATAATGATAAA [XGTACX_site3539] | 8.99 ± 0.37
AAAAGGGAAAAAATTAAAATTATATATATATATATG [CACACA_negctrl_site137] | 8.39 ± 0.18
AAGCTTAAAAATGGGGGTACGTCATAGGGATTCAAC [XGTACX_site8080] | 9.35 ± 0.52
TTTGACACAATATTTTGTACGAAACTATTAATTCAA [XGTACX_site4853] | 8.22 ± 0.32
AATATATAAACATATACACACAAAAACATATATATA [CACACA_site4855] | 8.79 ± 0.32
AATGTACACGCACCCACACACAAACAAATATAAATA [CACACA_site7319] | 8.94 ± 0.67
TTACGAATGAATATATGTACATATATATATATATAT [XGTACX_site3790] | 10.1 ± 0.51
ATGTTTTCAAAAATAAAACATATAAATAAATAAATA [TGCATGCA_negctrl_site226] | 8.42 ± 0.4
GACATAGTATTAAGTTGTACATATATAAAAATAAAT [XGTACX_site1583] | 8.65 ± 0.32
